# The list shows a part of the results.
# B1: PX9961U-pdi-543-24-543 (Parabacteroides distasonis) (protein)
# chain: EEPVGEFLPGQVESEENIEGIVTGAYAVLDGYYASDAINSGCSNWQFGDVVSDDAYKGGGGTGDQNQIHLMEIFNANPTGIDFEARWAALYEGIKRCNQAIRLLNGSEVKNKEQRLAEMRFLRGHYYFNLKIIYNQIPWIDETLVDPNEYNKKSNIEFSSDQLWEKILEEFSAAYKVLPESQADYGRPTKMAARAYMAKVYLYQSKWKECLEACDEVIQSGKYELFPDFRNVFLPENDNCSEIIFAIQLSINDGSPNNENGSYGDRLLPPGGPYPVYGFLRPTQNLVNAYKTDVKGLPYNDGKDVSENDYVDVRLDHTLARPNIPFMDVQLYDWTPREASVYGPYSPKKRLVSLNSTYYSPIWPYVNALNFYVIRYADLLLWRAEAAIETGDLETGRKYINMIRERAKNTQHVKTMDQSQDAANYKVGVYDEPFKSKNEAVQALRMERRLEMAHEGIRFFDLVRWGVADEVINAYIAKEKVFRSHLQNAHFVKGKHEYFPIPQSMIDICGTEVMKQNPGY
# Key:
# Experiment in all cases: glycan array binding signal (z-score within array); higher = stronger binding
# Settings in all cases: glycan notation: IUPAC condensed, linker removed
# [1] = target: Fuc(a1-3)[Gal3S(b1-4)]GlcNAc6S
# Method in brief: (§1)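 From the Consortium for Functional Glycomics database, 3228 arrays were curated, keeping only those whose protein sequence was available. Binding is given as a within-array Z-score averaged across arrays sharing a protein sequence and across linkers. Negative Z-scores can be read as non-binding.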
# [2] = target: Fuc(a1-3)[GalNAc(b1-4)]GlcNAc
# Method in brief: as §1
# [3] = target: Fuc(a1-3)[GalNAc(b1-4)]GlcNAc6S
# Method in brief: as §1
# Fuc(a1-4)GlcNAc = target: Fuc(a1-4)GlcNAc
# Method in brief: as §1
# Fuc(b1-3)GlcNAc = target: Fuc(b1-3)GlcNAc
# Method in brief: as §1
# Gal(a1-2)Gal = target: Gal(a1-2)Gal
# Method in brief: as §1
# Gal(a1-3)Gal = target: Gal(a1-3)Gal
# Method in brief: as §1
# Gal(a1-3)Gal(b1-3)GlcNAc = target: Gal(a1-3)Gal(b1-3)GlcNAc
# Method in brief: as §1
# [4] = target: Gal(a1-3)Gal(b1-3)GlcNAc(b1-2)Man
# Method in brief: as §1
# [5] = target: Gal(a1-3)Gal(b1-3)GlcNAc(b1-2)Man(a1-3)[Gal(a1-3)Gal(b1-3)GlcNAc(b1-2)Man(a1-6)]Man(b1-4)GlcNAc(b1-4)GlcNAc
# Method in brief: as §1
# [6] = target: Gal(a1-3)Gal(b1-3)GlcNAc(b1-3)GalNAc
# Method in brief: as §1
# [7] = target: Gal(a1-3)Gal(b1-3)GlcNAc(b1-6)GalNAc
# Method in brief: as §1
# [8] = target: Gal(a1-3)Gal(b1-3)[Fuc(a1-4)]GlcNAc(b1-2)Man(a1-3)[Gal(a1-3)Gal(b1-3)[Fuc(a1-4)]GlcNAc(b1-2)Man(a1-6)]Man(b1-4)GlcNAc(b1-4)GlcNAc
# Method in brief: as §1
# Gal(a1-3)Gal(b1-4)Glc = target: Gal(a1-3)Gal(b1-4)Glc
# Method in brief: as §1
# Gal(a1-3)Gal(b1-4)GlcNAc = target: Gal(a1-3)Gal(b1-4)GlcNAc
# Method in brief: as §1
# [9] = target: Gal(a1-3)Gal(b1-4)GlcNAc(b1-2)Man
# Method in brief: as §1
# [10] = target: Gal(a1-3)Gal(b1-4)GlcNAc(b1-2)Man(a1-3)[Gal(a1-3)Gal(b1-4)GlcNAc(b1-2)Man(a1-6)]Man(b1-4)GlcNAc(b1-4)GlcNAc
# Method in brief: as §1
# [11] = target: Gal(a1-3)Gal(b1-4)GlcNAc(b1-3)GalNAc
# Method in brief: as §1
# [12] = target: Gal(a1-3)Gal(b1-4)GlcNAc(b1-6)GalNAc
# Method in brief: as §1
# [13] = target: Gal(a1-3)Gal(b1-4)[Fuc(a1-3)]GlcNAc
# Method in brief: as §1
# [14] = target: Gal(a1-3)Gal(b1-4)[Fuc(a1-3)]GlcNAc(b1-2)Man(a1-3)[Gal(a1-3)Gal(b1-4)[Fuc(a1-3)]GlcNAc(b1-2)Man(a1-6)]Man(b1-4)GlcNAc(b1-4)GlcNAc
# Method in brief: as §1
# Gal(a1-3)GalNAc = target: Gal(a1-3)GalNAc
# Method in brief: as §1
# [15] = target: Gal(a1-3)[Gal(a1-4)]Gal(b1-4)GlcNAc
# Method in brief: as §1
# [16] = target: Gal(a1-4)Gal(b1-3)GlcNAc(b1-2)Man(a1-3)[Gal(a1-4)Gal(b1-3)GlcNAc(b1-2)Man(a1-6)]Man(b1-4)GlcNAc(b1-4)GlcNAc
# Method in brief: as §1
# Gal(a1-4)Gal(b1-4)Glc = target: Gal(a1-4)Gal(b1-4)Glc
# Method in brief: as §1
# Gal(a1-4)Gal(b1-4)GlcNAc = target: Gal(a1-4)Gal(b1-4)GlcNAc
# Method in brief: as §1
# [17] = target: Gal(a1-4)Gal(b1-4)GlcNAc(b1-2)Man(a1-3)[Gal(a1-4)Gal(b1-4)GlcNAc(b1-2)Man(a1-6)]Man(b1-4)GlcNAc(b1-4)GlcNAc
# Method in brief: as §1
# [18] = target: Gal(a1-4)Gal(b1-4)GlcNAc(b1-3)Gal(b1-4)Glc
# Method in brief: as §1
# Gal(a1-4)GlcNAc = target: Gal(a1-4)GlcNAc
# Method in brief: as §1
# Gal(a1-6)Glc = target: Gal(a1-6)Glc
# Method in brief: as §1
# Gal(b1-2)Gal = target: Gal(b1-2)Gal
# Method in brief: as §1
# Gal(b1-3)Gal = target: Gal(b1-3)Gal
# Method in brief: as §1
# Gal(b1-3)Gal(b1-4)GlcNAc = target: Gal(b1-3)Gal(b1-4)GlcNAc
# Method in brief: as §1
# Gal(b1-3)GalNAc = target: Gal(b1-3)GalNAc
# Method in brief: as §1
# [19] = target: Gal(b1-3)GalNAc(a1-3)[Fuc(a1-2)]Gal(b1-4)Glc
# Method in brief: as §1
# [20] = target: Gal(b1-3)GalNAc(a1-3)[Fuc(a1-2)]Gal(b1-4)GlcNAc
# Method in brief: as §1
# Gal(b1-3)GalNAc(b1-3)Gal = target: Gal(b1-3)GalNAc(b1-3)Gal
# Method in brief: as §1
# [21] = target: Gal(b1-3)GalNAc(b1-3)Gal(a1-4)Gal(b1-4)Glc
# Method in brief: as §1
# [22] = target: Gal(b1-3)GalNAc(b1-4)Gal(b1-4)Glc
# Method in brief: as §1
# [23] = target: Gal(b1-3)GalNAc(b1-4)[Neu5Ac(a2-3)]Gal(b1-4)Glc
# Method in brief: as §1
# Gal(b1-3)GlcNAc = target: Gal(b1-3)GlcNAc
# Method in brief: as §1
# [24] = target: Gal(b1-3)GlcNAc(a1-3)Gal(b1-4)GlcNAc
# Method in brief: as §1
# [25] = target: Gal(b1-3)GlcNAc(a1-6)Gal(b1-4)GlcNAc
# Method in brief: as §1
# Gal(b1-3)GlcNAc(b1-2)Man = target: Gal(b1-3)GlcNAc(b1-2)Man
# Method in brief: as §1
# [26] = target: Gal(b1-3)GlcNAc(b1-2)Man(a1-3)[Gal(b1-3)GlcNAc(b1-2)Man(a1-6)]Man(b1-4)GlcNAc(b1-4)GlcNAc
# Method in brief: as §1
binder,measurement,setting,value
B1,glycan array binding signal (z-score),[1],-0.362
same,glycan array binding signal (z-score),[2],-0.446
same,glycan array binding signal (z-score),[3],-0.338
same,glycan array binding signal (z-score),Fuc(a1-4)GlcNAc,-0.433
same,glycan array binding signal (z-score),Fuc(b1-3)GlcNAc,-0.456
same,glycan array binding signal (z-score),Gal(a1-2)Gal,-0.353
same,glycan array binding signal (z-score),Gal(a1-3)Gal,2.49
same,glycan array binding signal (z-score),Gal(a1-3)Gal(b1-3)GlcNAc,0.001
same,glycan array binding signal (z-score),[4],0.079
same,glycan array binding signal (z-score),[5],1.15
same,glycan array binding signal (z-score),[6],-0.232
same,glycan array binding signal (z-score),[7],-0.308
same,glycan array binding signal (z-score),[8],4.38
same,glycan array binding signal (z-score),Gal(a1-3)Gal(b1-4)Glc,-0.175
same,glycan array binding signal (z-score),Gal(a1-3)Gal(b1-4)GlcNAc,-0.225
same,glycan array binding signal (z-score),[9],-0.346
same,glycan array binding signal (z-score),[10],3.05
same,glycan array binding signal (z-score),[11],0.724
same,glycan array binding signal (z-score),[12],-0.016
same,glycan array binding signal (z-score),[13],0.287
same,glycan array binding signal (z-score),[14],-0.326
same,glycan array binding signal (z-score),Gal(a1-3)GalNAc,-0.348
same,glycan array binding signal (z-score),[15],1.66
same,glycan array binding signal (z-score),[16],-0.428
same,glycan array binding signal (z-score),Gal(a1-4)Gal(b1-4)Glc,0.133
same,glycan array binding signal (z-score),Gal(a1-4)Gal(b1-4)GlcNAc,-0.447
same,glycan array binding signal (z-score),[17],2.13
same,glycan array binding signal (z-score),[18],-0.389
same,glycan array binding signal (z-score),Gal(a1-4)GlcNAc,-0.38
same,glycan array binding signal (z-score),Gal(a1-6)Glc,-0.376
same,glycan array binding signal (z-score),Gal(b1-2)Gal,-0.373
same,glycan array binding signal (z-score),Gal(b1-3)Gal,-0.366
same,glycan array binding signal (z-score),Gal(b1-3)Gal(b1-4)GlcNAc,0.377
same,glycan array binding signal (z-score),Gal(b1-3)GalNAc,-0.28
same,glycan array binding signal (z-score),[19],-0.432
same,glycan array binding signal (z-score),[20],-0.355
same,glycan array binding signal (z-score),Gal(b1-3)GalNAc(b1-3)Gal,-0.358
same,glycan array binding signal (z-score),[21],-0.31
same,glycan array binding signal (z-score),[22],-0.437
same,glycan array binding signal (z-score),[23],-0.458
same,glycan array binding signal (z-score),Gal(b1-3)GlcNAc,-0.43
same,glycan array binding signal (z-score),[24],0.365
same,glycan array binding signal (z-score),[25],-0.246
same,glycan array binding signal (z-score),Gal(b1-3)GlcNAc(b1-2)Man,2.87
same,glycan array binding signal (z-score),[26],0.959

# From the supplement of paper PMC8728848
